The campaign covered roughly 340,000 compounds. About 6,900 (2%) were called active. Rule as the data show it: active = inhibition above about 30%; inactive = below that, where a call was filed. Only a part is listed here, and it is no random draw. The source gives no active or inactive call for entries shown without one.

The target of this experiment is D(2) dopamine receptor (Homo sapiens) (UniProt P14416). The experiment is described as follows: HTS Assay for Allosteric Antagonists of the Human D2 Dopamine Receptor: Primary Screen for Antagonists. Also: 0% is about no effect. The settings on record: HEK293 TREx D2 cells, calcium flux, dopamine EC80; at 10 µM; stronger effect = higher value. In short, it runs like this: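 Cells plated overnight at 30 C with tetracycline; no-wash calcium dye, 30–90 min RT; 10 s baseline; compound pinned; 180 s read; EC80 dopamine added; another 180 s read.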
Sequence of UniProt P14416 (P14416 whole entry, looked up): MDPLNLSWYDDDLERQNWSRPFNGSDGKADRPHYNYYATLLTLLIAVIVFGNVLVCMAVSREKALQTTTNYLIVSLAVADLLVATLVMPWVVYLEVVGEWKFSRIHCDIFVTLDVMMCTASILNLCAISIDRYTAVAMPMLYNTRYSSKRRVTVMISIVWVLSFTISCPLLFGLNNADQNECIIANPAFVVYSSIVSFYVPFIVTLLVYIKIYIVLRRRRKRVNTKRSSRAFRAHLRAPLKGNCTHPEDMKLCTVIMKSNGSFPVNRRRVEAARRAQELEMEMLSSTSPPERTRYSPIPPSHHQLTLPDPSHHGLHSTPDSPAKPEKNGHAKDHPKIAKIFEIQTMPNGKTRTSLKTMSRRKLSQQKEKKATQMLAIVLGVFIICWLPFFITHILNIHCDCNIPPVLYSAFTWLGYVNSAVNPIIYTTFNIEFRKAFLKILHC
On to `Cc1ccc(S(=O)(=O)NCCc2csc3nc(-c4ccccc4C)nn23)cc1`, for which the inhibition (in general, the drop in the measured response relative to a control, in per cent) is 7.62%.
Consider `Cc1ccc(CNC(=O)C(C)n2ccc3cc(S(=O)(=O)N4CCCC4)ccc32)cc1` (stereo not drawn), for which the inhibition was found to be 0.94%.
As for `Cc1ccc(CCNC(=O)c2ccc(NC(=O)N3CCSc4ccccc43)cc2)cc1`, the figure is -11.5%; as for `CCOc1ccc2c(c1)c(=O)c(C(=O)c1ccc(CC)cc1)cn2CC(=O)Nc1ccccc1C`, 21.7%; as for `COc1ccc(N2CCN(c3cc(C)nc4nncn34)CC2)cc1`, -10.9%.
Regarding `O=C(NC1CCN(Cc2ccccc2)CC1)C12CC3CC(CC(C3)C1)C2`, the inhibition was active: 32%.
As for `CCOC(=O)c1c(S(=O)(=O)N2CCC(C(=O)Nc3cccc(C)n3)CC2)c(C)n(C)c1C`, the inhibition was -16.1%.
To `CCCN(C(=O)c1cc2c(=O)oc3ccccc3c2s1)c1ccccc1C` belongs -24.1%; to `CCC(C)NC(=O)Cn1c(=O)ccc2cc(S(=O)(=O)N3CCCC3)ccc21` (stereo not drawn), 13.7%; to `COc1ccc(/C=N\NC(=O)CCN2CCN(c3ccccc3)CC2)cc1OC`, active: 56.4%.
As for `COCC(=O)N1c2nc(-c3ccco3)nn2C2(CCCCC2)[C@@H]2CCCC[C@@H]21`, the figure is 12.9%.
Regarding `Cc1ccc(NC(=O)Cn2nnc(C(=O)NCCc3ccccc3)c2N)cc1Cl`, the inhibition was determined as 10.2%.
To `CCOc1ccccc1NC(=O)c1ccc(CN2CCc3ccccc3C2)cc1` belongs active: 53.6%.
As for `C=CCc1ccccc1OCC(O)CN1CCN(c2ccccc2F)CC1` (stereo not drawn), the figure is active: 65.5%; as for `COc1ccc(NC(=O)Cc2noc3ccc(C)cc23)cc1Cl`, -2.64%.
Take `COc1cccc(N2CC(NC(=O)C3CC3)CC2=O)c1` (stereo not drawn): the inhibition stood at 18.3%.
As for `CCOc1ccccc1NC(=O)CN1C=NS(=O)(=O)c2ccccc21`, the figure is 3.12%.
As for `Cc1ccc(CCNC(=O)c2ccc(CS(=O)(=O)Cc3ccccc3F)o2)cc1`, the figure is 5.44%; as for `Cc1ccc(C(=O)Nc2ccc3nc(N4CCCCC4)cc(C)c3c2)cc1F`, -19.6%.
As for `COc1cccc2cc(-c3nc(-c4ccc(C)cc4)c(C)s3)c(=O)oc12`, the figure is -1.08%.
`Cc1ccc(NC(=O)CCNS(=O)(=O)c2ccc3c(c2)CCCC(=O)N3)cc1`: the inhibition is -5.99%.
To `CC(=O)c1ccc(N2C(=O)N(Cc3cc(C)ccc3C)c3ccccc3S2(=O)=O)cc1` belongs 19.8%; to `Cc1cc(Nc2ccc(F)cc2)nc(-n2nc(C)cc2C)n1`, 16.8%; to `O=S(=O)(Nc1ccc(Cl)cc1)c1cccc(S(=O)(=O)c2ccc(Cl)c(Cl)c2)c1`, -7.49%.
With `OC(COCc1ccco1)CN1CCN(c2ccccc2)CC1` (stereo not drawn), the inhibition was active: 74.4%.
As for `Cc1ccc(C)c(N2CCN(CCCNC(=O)Nc3ccc(Cl)cc3)CC2)c1`, the figure is 8%.
As for `Cc1cccc(NC(=O)C2CCCN(c3nc4ccccc4s3)C2)c1C` (stereo not drawn), the figure is 21.6%; as for `CCOC(=O)C1CCCN(C(=O)Cn2nc(CC)n3c(cc4occc43)c2=O)C1` (stereo not drawn), 0.31%; as for `COc1ccccc1N1CCN(CC(O)COc2ccc(C)cc2C(C)(C)C)CC1` (stereo not drawn), -28.3%.
For `CCOC(=O)c1c(C)oc2nc(C)nc(NCC3CCN(Cc4cccc(Cl)c4)CC3)c12`, the inhibition is -0.83%.
For the molecule `CCCCN(C)C(=O)Cn1c(SCC(=O)Nc2ccc(C)c(C)c2)nc2ccccc21`, the inhibition came out at 7.45%.
As for `Cc1nc2ccccc2n1CCc1nc2c3ccccc3nc(SCc3ccc(F)cc3)n2n1`, the figure is 26.8%; as for `Cc1cccc(Nc2c3c(nc4nncn24)CCC3)c1C`, 4.56%; as for `COc1ccc2c(c1)c1c(c(=O)n(-c3ccccc3C)c(=O)n1Cc1c(F)cccc1Cl)n2C`, -3.55%.
To `Cc1cc(C)c(OCC(=O)N(Cc2cccc(F)c2)Cc2ccco2)c(C)c1` belongs 2.63%.
As for `CC(=O)N1CCc2cc(S(=O)(=O)NC(Cc3ccccc3)C(=O)Nc3ccc(Cl)cc3)ccc21` (stereo not drawn), the figure is -0.0478%.
`CCc1nn(CC(=O)N2CCN(c3cccc(C(F)(F)F)c3)CC2)c(=O)c2cccn12`: the inhibition came out at 18.5%.
As for `Cc1cccc(NC(=O)Cn2c(=O)oc3cc(S(=O)(=O)NC4CCCC4)ccc32)c1`, the inhibition is -10.5%.
To `CCOC(=O)c1ccc(NS(=O)(=O)c2ccc3[nH]c4c(c3c2)CCCCC4)cc1` belongs -1.22%; to `Fc1ccc(CNCc2ccc(Br)cc2)cc1`, active: 48.7%.
As for `Nc1ccccc1SCc1ccccc1`, the figure is active: 30.7%; as for `CC(=O)N1CCCc2cc(S(=O)(=O)Nc3ccc(C)c(F)c3)ccc21`, -0.922%.
For the molecule `Cc1oc2c(c(C)cc3oc(=O)c(CC(=O)NCc4ccc(F)cc4)c(C)c32)c1C`, the inhibition was -4.52%.
To `COc1ccc(C2C(=O)N(C3CCC(C)CC3)CC(=O)N2CCC2=CCCCC2)cc1OC` (stereo not drawn) belongs 9.22%; to `Cc1cccc(C)c1NC(=O)CN1C(=O)c2cccc3cccc1c23`, 16.2%; to `CCOc1ccc(NC(=O)CN2C(=O)C3(SCC(=O)N3c3ccc(F)cc3)c3ccccc32)cc1` (stereo not drawn), -0.1%.
To `COc1ccc(CNc2oc(-c3ccc(COc4ccc(OC)cc4)o3)nc2C#N)cc1` belongs 13.1%; to `CCc1ccc2nc(N3CCN(C(=O)C4CC4)CC3)sc2c1`, -25.8%; to `CCOc1ccccc1NC(=O)Cn1c2ncccc2c(=O)n1-c1ccc(C)c(C)c1`, -2.5%.
To `Cc1oc(-c2ccc(C(=O)Nc3ccccc3F)cc2)nc1COc1ccccc1` belongs -5.86%; to `CCN1C(=O)C(Cc2nc3ccccc3c(=O)n2-c2ccccc2)c2cc(Br)ccc21` (stereo not drawn), 5%.
Regarding `COc1ccc(C)cc1NC(=O)CSc1nc(=O)n(Cc2ccccn2)c2c1CCC2`, the inhibition worked out at 19.2%.
Regarding `N#Cc1ccccc1NC(=O)c1cnc(N2CCOCC2)c2ccccc12`, the inhibition is -16.8%.
To `CCc1ccc(N(C)S(=O)(=O)c2ccc3[nH]cc(C(=O)NCC4CCCO4)c(=O)c3c2)cc1` (stereo not drawn) belongs -3.16%; to `CCC(=O)N1CCc2cc(Br)cc(S(=O)(=O)CCC(=O)NCc3ccc(F)cc3)c21`, -5.23%.
To `CC(=O)N1CCOc2cc(S(=O)(=O)N(C)Cc3ccccc3)c(Cl)cc21` belongs 16.8%; to `COc1ccccc1-c1nnc(C2CCN(C(=O)c3ccc(Cl)cc3)CC2)o1`, 16.2%; to `Cc1ccc(Cn2c(CNC(=O)c3cccc(C)c3)nc3ccccc32)cc1`, -6.83%.
As for `COc1cccc2c1Oc1ncccc1N(C(=O)CCC(=O)NCc1ccc(C)cc1)C2`, the figure is -9.3%; as for `Cc1ccc(-n2nc3c(=O)n(CCCC(=O)NCc4ccccc4F)nc(C)c3c2C)cc1`, 9.09%; as for `O=C(Nc1c(C(=O)N2CCN(c3ccccc3F)CC2)oc2ccccc12)c1ccccc1F`, 5.43%.
For the molecule `Cc1csc2nc(COC(=O)CNC(=O)c3ccccc3Cl)cc(=O)n12`, the inhibition was 11.1%.
As for `O=C(CN1CCCN(Cc2ccc(F)cc2)S1(=O)=O)NCc1ccccc1Cl`, the figure is -7.15%.
